# T1: human B7H4 on the cell surface (human, UniProt Q7Z7D3 25-282)
# T1 construct: whole, on cells; also called CHOK1/hu B7H4; B7H4 on SK-BR-3
# T1 sequence (looked up): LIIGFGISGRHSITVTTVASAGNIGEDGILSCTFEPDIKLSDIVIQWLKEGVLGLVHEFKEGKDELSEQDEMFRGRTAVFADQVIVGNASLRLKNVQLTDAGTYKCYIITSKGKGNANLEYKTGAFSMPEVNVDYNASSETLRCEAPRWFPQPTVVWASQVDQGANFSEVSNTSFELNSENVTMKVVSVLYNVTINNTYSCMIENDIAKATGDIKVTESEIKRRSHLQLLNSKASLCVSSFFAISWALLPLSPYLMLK
# T2: Human B7H4 (his tag), Sino Biological #10738-H08H (human, UniProt Q7Z7D3 25-259)
# T2 construct: extracellular domain; Bought protein; also called hB7H4-ECD-his
# T2 sequence (looked up): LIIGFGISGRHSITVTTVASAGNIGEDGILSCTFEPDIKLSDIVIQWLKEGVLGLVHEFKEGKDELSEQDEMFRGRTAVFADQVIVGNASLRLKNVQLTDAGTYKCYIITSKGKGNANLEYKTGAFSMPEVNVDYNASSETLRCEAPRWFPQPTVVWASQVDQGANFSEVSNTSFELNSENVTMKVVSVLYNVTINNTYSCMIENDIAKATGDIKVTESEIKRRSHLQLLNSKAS
# B1: PR002421 (antibody, human IgG1, kappa)
# heavy: QVQLVQSGAEVKKPGSSMRVSCKASEDTFSSYAISWVRQAPGQGLEWMGGTAPIFGTTNYAQKFQGRVTITADKSTSTAYMELSSLRSEDTAVYYCARGGPYFDYWGQGTLVTVSSASTKGPSVFPLAPSSKSTSGGTAALGCLVKDYFPEPVTVSWNSGALTSGVHTFPAVLQSSGLYSLSSVVTVPSSSLGTQTYICNVNHKPSNTKVDKKV[human IgG1 Fc with changes not written out]
# light: EIVMTQSPASLSVSPGERATLSCRASQSVSSNLAWYQQKPGQAPRLLIYGASTRATGIPARVSGGGSGTEFTLTISSLQSEDFAVYYCQQYKNWPFTFGPGTKLEIKRTVAAPSVFIFPPSDEQLKSGTASVVCLLNNFYPREAKVQWKVDNALQSGNSQESVTEQDSKDSTYSLSSTLTLSKADYEKHKVYACEVTHQGLSSPVTKSFNRGEC
# notes: PTM variant/DE mutant of PR002037 (L: C87Y; Fc S239D, I332E), human IgG1; also called RP002421
# What was measured:
# [1] = molecular target: T1, human B7H4 on the cell surface; experiment: FACS, SK-BR-3 cells
# Description: This example is intended to investigate the in vitro binding activity of anti-human B7H4 H2L2 monoclonal antibody to human/cynomolgus monkey/mouse B7H4. Antibody binding experiments at the cellular level were performed using CHOK1 cell line overexpressing human B7H4 (CHOK1/hu B7H4, Harbour BioMed), CHOK1 cell line overexpressing cynomolgus monkey B7H4 (CHOK1/cyno B7H4, Harbour BioMed), CHOK1 cell line overexpressing mouse B7H4 (CHOK1/m B7H4, Harbour BioMed) and SK-BR-3 cell line (ATCC® HTB-30) highly expressing human B7H4. Briefly, CHOK1/hu B7H4 cells, CHOK1/cyno B7H4 cells, CHOK1/m B7H4 cells or SK-BR-3 cells were digested and resuspended with PBS containing 2% BSA. The cell density was adjusted to 1×10⁶ cells/mL. The cells were seeded in a 96-well V-bottom plate (Corning, #3894) at 100 μL/well, followed by the addition of test antibodies diluted in a 3-fold concentration gradient of 2 times the final concentration, each at 100 μL/well. The cells were incubated at 4° C. for 2 h away from light. Thereafter, the cells in each well were rinsed twice with 100 μL of pre-cooled PBS containing 2% BSA, and centrifuged at 500 g at 4° C. for 5 min, and then the supernatant was discarded. Then 100 μL of a fluorescent secondary antibody (Alexa Fluor 488-conjugated AffiniPure Goat Anti-Human IgG, Fcγ Fragment Specific, Jackson, #109-545-098, 1:500 diluted) was added to each well. The plate was incubated away from light at 4° C. for 1 h. The cells in each well were washed twice with 100 μL of pre-cooled PBS containing 2% BSA, and centrifuged at 500 g at 4° C. for 5 minutes, and then the supernatant was discarded. Finally, the cells in each well were resuspended with 200 μL of pre-cooled PBS containing 2% BSA, and the fluorescence signal values were read using an ACEA Novocyte3000 flow cytometer.
# [2] = molecular target: T2, Human B7H4 (his tag), Sino Biological …; experiment: SPR (Biacore T200), antibody captured on Protein A, B7H4-his as analyte, 1:1 fit
# Description: 10×HBS-EP+ (GE Healthcare, #BR-1006-69) was diluted 10-fold and then taken as an experimental buffer. The flow rate was set at 10 μL/min, and Protein A was coupled to 4 channels of a chip CM5 (GE Healthcare, #BR-1005-30) through the following procedures: 1) the injection time was set to 800 s, and a fresh mixture of 50 mM NHS and 200 mM EDC was injected into the 4 channels in a volume ratio of 1:1; 2) Protein A was diluted to 20 μg/mL with sodium acetate (GE Healthcare, #BR-1003-50) at pH 4.5 and injected into each channel for 800 s; and 3) 1 M ethanolamine at pH 8.5 was injected for 800 s to block the remaining active carboxyl groups on the chip surface. After blocking, the instrument was equilibrated with 1×HBS-EP+buffer for 2 hours, and the final coupling level of Protein A was about 2000 RU.
# A multi-cycle kinetics mode was set at Biacore T200, and each cycle included antibody capture, analyte binding and chip regeneration. […] Finally, 10 mM glycine-hydrochloric acid at pH 1.5 (GE Healthcare, #BR-1003-54) was injected at the same flow rate for 30 s to regenerate the chip.
# The experimental results were analyzed using the Biacore T200 analysis software 2.0, with channel 1 subtracted as a reference channel and a 1:1 kinetic fitting model selected as an analysis model.
# [3] = molecular target: T1, human B7H4 on the cell surface; experiment: FACS on SK-BR-3 cells after 0 to 14 days in 90% human serum at 37 °C
# Description: The cell density was adjusted to 1×10⁶ cells/mL. The cells were seeded in a 96-well V-bottom plate (Corning, #3894) at 100 μL/well, followed by the addition of test antibodies diluted in a 3-fold gradient at a concentration that was 2 times the final concentration, each at 100 μL/well. The cells were incubated at 4° C. for 2 h away from light. […] The cells in each well were washed twice with 100 μL of pre-cooled PBS containing 2% BSA, and centrifuged at 500 g at 4° C. for 5 minutes, and then the supernatant was discarded. Finally, the cells in each well were resuspended with 200 μL of pre-cooled PBS containing 2% BSA, and the fluorescence signal values were read using an ACEA Novocyte3000 flow cytometer.
binder,measurement,setting,value
B1,EC50,[1],1.92 nM
same,Maximum MFI,[1],242000 MFI
same,Kd,[2],0.921 nM
same,koff,[2],0.000322 s⁻¹
same,kon,[2],350000 M⁻¹ s⁻¹
same,EC50 (read off the curve),[3],~4 nM

# Reference: US20230312722A1 (NONA BIOSCIENCES SUZHOU, published 2023)
